Assay results from the supplement of paper PMC10126150.
Sequences with one replicate were seen in a single cluster, so their values are uncertain.

system: ATP; assay: switch fluorescence ratio, 500 uM ATP over buffer (Cy3 cluster intensity, sum of 5 cycles each) (fold (ratio)); higher = stronger signal-on switching upon ATP binding; sequences stand for … in TCGTCGGCAGCGTCAGATGTGTATAAGAGACAGTTTTTTTTTTTTTTTTTTTTTTTTT…TC; settings: aptamer strand: ATP DNA aptamer (quencher-CACCTGGGGGAGTATTGCGGAGGAAGG + anchor), 100 nM annealed; ATP concentration: 500 uM; one replicate
How it was run: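 Five buffer/ATP imaging cycles were run on Cy3-labelled switching-strand clusters on a modified Illumina MiSeq flow-cell, with NaOH stripping and re-annealing between cycles. In each cycle, clusters annealed to 100 nM quencher-labelled ATP aptamer were imaged in selection buffer, then after 15 min with 500 uM ATP at 22 °C. Per cluster, the fluorescence ratio is summed target-cycle over summed buffer-cycle Cy3 intensity, averaged per switch-domain sequence. Only clusters within 100-1000 RFU were kept.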
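Further: ATP exposure 15 min at 22 °C before imaging.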

| Sequence | switch fluorescence ratio |
| --- | --- |
| GTGTTAGGAA | 0.979 |
| TTCGCGCC | 1.11 |
| GAAACCGGCG | 1.33 |
| CAAGTTTATG | 0.999 |
| TTATGGCGTT | 1.01 |
| CAGCTTCATA | 0.998 |
| ACCGTCTCAA | 1.05 |
| CATCTCACC | 1.04 |
| GCTAGAGTCT | 1.04 |
| TTTCCGGTTC | 1.06 |
| TTACATGGGT | 1.01 |
| GTACCTCGGT | 1.01 |
| GTCAACAAGT | 1.2 |
| GGTCAGGCCG | 1.04 |
| GGAGATAACC | 1.03 |
| CGTACCACAT | 0.991 |
| TATGACAATA | 0.992 |
| TATATTTTAC | 1.04 |
| AAATAAAGTG | 0.947 |
| AACTCGGGTA | 0.999 |
| AAGTTGACTC | 1 |
| AATAACTTGG | 1.01 |
| AAAATCATAA | 0.991 |

| Sequence | switch fluorescence ratio |
| --- | --- |
| ACCGGTCGTC | 1.04 |
| GTGTAATGG | 1 |
| AATTGGGGCA | 0.954 |
| CTGCGGTATC | 1.82 |
| AGTGCAATAA | 2.89 |
| GAGGTCGCGG | 0.989 |
| TCCTTGCGGA | 1.12 |
| CCCCTTGCAG | 1.16 |
| ATGGGACGTG | 0.992 |
| AGAAGAGGAT | 1 |
| CGCTCGATAA | 1.07 |
| TGGGAAAAGT | 0.962 |
| GAGTTTTAAT | 1.05 |
| ACGTAGTATT | 0.978 |
| GTGGTATTTA | 1.01 |
| CGTCAGGTAG | 1.04 |
| TAACGGAAGG | 1.02 |
| GGAGGTTCAA | 0.976 |
| CTTTATCGCT | 0.986 |
| GTGAACGTAC | 1.7 |
| ATCGCCGATT | 0.989 |
| GGATCTTAGG | 0.98 |
| TATTATAGGG | 0.946 |

| Sequence | switch fluorescence ratio |
| --- | --- |
| CGCAGTTTTT | 1.07 |
| ACAAGGGAAA | 1.03 |
| GGTCTCGGCA | 1.01 |
| TCAGTTGCGG | 1.01 |
| GGCGGTCCTA | 0.992 |
| GTAATCGCCT | 1.28 |
| TACCAGTGTT | 1.03 |
| ATGTGGTC | 0.99 |
| CCATTGCCCC | 1.02 |
| TCGCTGAGAT | 0.987 |
| CGATGAGATG | 0.985 |
| GATAAACAAG | 1.02 |
| CCGGATGCCT | 1.04 |
| AATCGGACGT | 0.945 |
| TCGTGGAAAA | 0.981 |
| ATAAAGGTGA | 1.09 |
| TCAGAGGCG | 1.04 |
| CGTCTATC | 1.06 |
| CGTGGAGATA | 1 |
| CGATAAGTC | 1.02 |
| AATCAGTTCC | 1.05 |
| TTTGGGTTGT | 1.04 |
| CTTGCCTGAT | 1.01 |

| Sequence | switch fluorescence ratio |
| --- | --- |
| AGATGTGCAA | 0.989 |
| TAGAGGTTTT | 0.987 |
| GGACACAGCT | 1.07 |
| GAGCCGGGGG | 0.878 |
| ATGTGTCGGG | 0.983 |
| CACCAAGTAG | 1.03 |
| TGGACTATT | 1 |
| ACTGGAGTTC | 0.976 |
| GCAACTATGA | 1.07 |
| ACCGTACTCG | 1.44 |
| TTTTAGATG | 1.02 |
| CATAGTTAGG | 0.988 |
| GTGCAAAAAG | 0.966 |
| GAAGAGTTAG | 0.993 |
| CTCCGAGACG | 1.28 |
| GGCACGAGGG | 0.983 |
| TACATCAGAG | 1.03 |
| TTCAGAACCT | 1.73 |
| GTAAAGTACG | 1.13 |
| AACGACAGCT | 1.1 |
| CCTGTGCGGT | 1.01 |
| TCGTAAGGCT | 1.01 |
| CATTCTGCTG | 1.01 |

| Sequence | switch fluorescence ratio |
| --- | --- |
| TGCTGAAATA | 1.01 |
| AAACACTCTA | 1.1 |
| TCAGTTCGCG | 1.01 |
| CGGGGACCAT | 1.02 |
| TGGTGGAGAG | 0.983 |
| GCATGTCTGT | 1.02 |
| AACTTCGTCA | 1.06 |
| GTGTGCTTTC | 1.01 |
| TGCGGTTTC | 1.02 |
| TCTGGGCACT | 1.38 |
| TTCAGGTATC | 1.01 |
| ACGACCAT | 1.25 |
| GTGCAAGTAT | 1.01 |
| CCAGTACGCG | 1.06 |
| CTGGTTGAAC | 1.02 |
| CTGAATTAA | 0.958 |
| GGAGGCACAT | 1.08 |
| TCTTGTAGC | 1.03 |
| CTGACCGTAA | 4.21 |
| AATCTTCCTG | 1.43 |
| TGATCGTTGA | 0.979 |
| AAATCGCGG | 0.975 |
| AATGGATTAG | 0.986 |

| Sequence | switch fluorescence ratio |
| --- | --- |
| CGTAGATCCT | 1.04 |
| GCATACGGGT | 1.06 |
| CCAAGACCGC | 1.41 |
| ATAAAAGGCA | 0.963 |
| GATCTCAGT | 1.01 |
| GAAACAACTA | 0.988 |
| TTGGGGCATC | 0.985 |
| GTGGACTAAG | 0.986 |
| TCGGTGATTT | 0.989 |
| GACAGATTTT | 1.02 |
| CAATGTCGTG | 0.975 |
| CGAGTGTCCG | 0.93 |
| GGACGAAAGT | 1.03 |
| TTGATGCGGG | 1.04 |
| GCCGAATGAC | 1.25 |
| CTTGCCGTAT | 1.01 |
| CACATGTGTC | 1.02 |
| CGTTGTGGGT | 0.961 |
| CAATTTGTTA | 0.99 |
| GAAGTCTCGA | 0.968 |
| CCATTTGAAA | 1.01 |
| GGTTGGAACA | 1.03 |
| TTAAAGCCCA | 0.996 |

| Sequence | switch fluorescence ratio |
| --- | --- |
| ACGGCAATT | 1.4 |
| ATCAGAGTGA | 0.994 |
| CGGCCTAAAC | 1.1 |
| TGGTCTTGAG | 0.95 |
| AAAACGGTAC | 1.01 |
| CGCAGTCCGT | 1.06 |
| TATGTTTTGG | 1.01 |
| TCTTAGTATA | 1.01 |
| ATGGTGTTGG | 1.02 |
| TCCAGCCCCA | 1.03 |
| TGAACAAAGG | 1.01 |
| CAGCCTCCT | 1.19 |
| TTATAGCTAG | 1.01 |
| CAAGTAAATT | 1.03 |
| CTAAAGATGA | 0.978 |
| TTTCCAGGTT | 1.12 |
| ACGAATGGAC | 1.11 |
| GCAGGTCCAT | 0.998 |
| CGGAATTGCG | 1.03 |
